# Results as given in PubChem BioAssay AID485344 (National Center for Advancing Translational Sciences (NCATS), 2010).
# The campaign covered roughly 340,000 compounds. About 6,900 (2%) were called active. Rule as the data show it: active = inhibition above about 30%; inactive = below that, where a call was filed. The list shows a part of the results, in another mix than the full data. Entries without a call were filed so in the source.
# Target: D(2) dopamine receptor (Homo sapiens) (UniProt P14416)
# Chain of UniProt P14416 (P14416 whole entry, looked up): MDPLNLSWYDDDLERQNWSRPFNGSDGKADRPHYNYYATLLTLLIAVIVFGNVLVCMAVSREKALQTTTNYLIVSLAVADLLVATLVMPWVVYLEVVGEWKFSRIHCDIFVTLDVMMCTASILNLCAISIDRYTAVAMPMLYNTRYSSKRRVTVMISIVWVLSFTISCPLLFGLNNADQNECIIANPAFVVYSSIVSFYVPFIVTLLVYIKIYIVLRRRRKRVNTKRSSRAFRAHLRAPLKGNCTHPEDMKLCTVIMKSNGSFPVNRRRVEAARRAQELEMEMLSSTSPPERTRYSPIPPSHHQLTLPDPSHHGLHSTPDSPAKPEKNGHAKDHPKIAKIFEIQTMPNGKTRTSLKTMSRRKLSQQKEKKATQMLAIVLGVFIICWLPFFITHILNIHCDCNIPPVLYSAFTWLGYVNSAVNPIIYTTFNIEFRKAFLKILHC
# Assay: HTS Assay for Allosteric Antagonists of the Human D2 Dopamine Receptor: Primary Screen for Antagonists; also: 0% is about no effect
# Conditions: HEK293 TREx D2 cells, calcium flux, dopamine EC80; at 10 µM; stronger effect = higher value
# Procedure, shortened: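 Read-out: kinetic calcium fluorescence (1 cycle/s) in inducible HEK293 T-REx D2 cells after an EC80 dopamine addition that followed 180 s compound preincubation. Loss of the dopamine response indicates antagonism.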
row,Structure (SMILES),inhibition
1,CC1CCCN(c2csc3ccccc3c2=O)C1 (stereo not given),-0.921%
2,CCCN(Cc1cccs1)C(=O)Nc1ccccc1C,3.19%
3,Cc1oc2c(c1C(=O)Nc1ccc(Cl)cc1F)C1=NCCN1C=N2,9.78%
4,COc1ccc(Cl)cc1C(=O)NCC(c1ccc(N(C)C)cc1)N1CCOCC1 (stereo not given),26.8%
5,Cc1cccc(C)c1OCC(=O)N(Cc1ccc(Cl)cc1)CC1CCCO1 (stereo not given),10.9%
6,Cc1cc(C)cc(NS(=O)(=O)c2cc(Br)cnc2N)c1,active: 31.8%
7,Cc1nc2sccn2c(=O)c1S(=O)(=O)NCc1ccccc1,22.6%
8,COc1ccc(Nc2nnc(-c3ccc(C)c(S(=O)(=O)N4CCN(C)CC4)c3)c3ccccc23)cc1,2.62%
9,Cc1ccc(C)c(N2CCN(C(=O)c3ccc4c(c3)c(C)c(C)n4C)CC2)c1,2.29%
10,CCOc1ccccc1C1CC(=O)NC(C)=C1C(=O)OCc1ccc(C)cc1 (stereo not given),8.7%
11,COc1cc2c(cc1OC)C(COc1ccc3c(C)cc(=O)oc3c1)N(C(=O)c1ccc(C)c(C)c1)CC2 (stereo not given),3.11%
12,COC(=O)c1ccc(OC)c(CN2CCCN(Cc3ccc(C)cc3)S2(=O)=O)c1,-2.57%
13,Cc1cc(C)cc(NC(=O)CCC(=O)Nc2nnc(C(C)C)s2)c1,active: 33.2%
14,COc1ccc(N2CCN(C(=O)Cc3noc4ccc(C)cc34)CC2)cc1,26.9%
15,COc1ccc(C(=O)N2CCC(c3ccncc3)CC2)cc1OC,28.3%
16,CCc1ccc(NC(=O)Cn2ccn(-c3cccc(Cl)c3)c(=O)c2=O)cc1,-16.8%
17,COc1cc(C(=O)NNC(=O)C2CSC3(C)CCC(=O)N23)cc(OC)c1OC (stereo not given),active: 40.6%
18,Cc1ccc(CN2CCc3nc(N4CCN(C)CC4)ncc3C2)cc1,-21%
19,COc1cccc(NC(=O)CCc2nc(-c3cc(OC)c(OC)c(OC)c3)no2)c1,-13.3%
20,COc1ccc(CCNC(=O)c2cc(-c3ccc(Cl)cc3)on2)cc1OC,-19.4%
21,CCOC(=O)c1ccc(NC(=O)c2cc3c(=O)n(C)c4ccccc4c3n2C)cc1,-14.5%
22,Cn1c(=O)cc(SCC(=O)Nc2cccc(C#N)c2)c2ccc(Cl)cc21,-2.8%

row,Structure (SMILES),inhibition
1,Cc1ccc(C)c(NC(=O)C(=O)NCCc2csc(-c3cccc(F)c3)n2)c1,22.4%
2,O=C(N/N=C/c1ccccn1)C1CC1,active: 31.9%
3,CC1CCCN(CCOc2ccc3ccccc3c2Br)C1 (stereo not given),active: 71.5%
4,Cc1nc2ccccn2c(=O)c1NC(=O)c1ccccc1Cl,-2.31%
5,COc1cc2c(C(=O)N3CCN(c4ccc(C)cc4)C(C)C3)cn(CC(C)C)c(=O)c2cc1OC (stereo not given),-6.22%
6,COc1ccccc1CNC(=O)Cn1c(-c2cccs2)cc2cc(F)ccc21,-1.41%
7,CCOc1ccccc1NC(=O)Cn1nc2c3cc(F)ccc3n(Cc3cccc(C)c3)cc-2c1=O,2.99%
8,COc1ccc(Cl)cc1C(=O)NNC(=O)COC(=O)CCN=C1NS(=O)(=O)c2ccccc21,active: 30.4%
9,Cc1c(C)n(C)c2ccc(C(=O)N3CCN(c4ccccn4)CC3)cc12,active: 31.4%
10,COc1ccc(/C=C/c2nc(C#N)c(NC3CCCCC3)o2)cc1OC,7.24%
11,O=C(CCS(=O)(=O)c1cc2c3c(c1)CCN3C(=O)CC2)NCc1ccc(Cl)cc1,1.94%
12,CCOC(=O)C1=C(CN2CCN(c3ccccc3F)CC2)NC(=O)NC1c1ccc(OC)cc1 (stereo not given),-14.2%
13,COC(=O)CSc1ccc2nnc(CCNS(=O)(=O)c3ccc(C)cc3)n2n1,-21.6%
14,Cc1ccc(CNC(=O)CCc2c(C)nn(-c3ccc(N4CCCC4)nn3)c2C)cc1,-6.41%
15,CCc1cccc(C)c1Nc1c(-c2cccc(O)c2)nc2cnccn12,20.7%
16,CC(C)CCNC(=O)c1cnc2sc(N3CCCCC3)nn2c1=O,1.73%
17,COc1ccc(N(C(=O)c2cccc(C)c2)S(=O)(=O)c2ccc(Cl)cc2)cc1,-2.27%
18,CCOc1cc(C(=O)N2CCn3c4c(c5cc(C)ccc53)CCCC42)cc(OCC)c1OCC (stereo not given),5.05%
19,Cc1c(NC(=O)Nc2ccccc2C(F)(F)F)sc2nc3n(c(=O)c12)CCC(C)CC3 (stereo not given),3.38%
20,CC(NC(=O)C1CCN(c2nc3ccccc3nc2C(F)(F)F)CC1)c1ccccc1 (stereo not given),5.55%
21,O=C(N[C@H]1CC1c1ccccc1)c1ccc([N+](=O)[O-])cc1 (stereo not given in full),active: 32.9%
22,CCCCN(CC)CCCNC(=O)Nc1sc2nc3n(c(=O)c2c1C)CCC(C)CC3 (stereo not given),3.4%

row,Structure (SMILES),inhibition
1,CCCCNC(=O)c1cccc(-n2c(C)nc3cccnc32)c1,9.3%
2,Cc1ccc2[nH]c3c(N4CCN(Cc5ccccc5)CC4)ncnc3c2c1,active: 38.6%
3,Cc1nc2ccc(S(=O)(=O)N(C)CC(=O)Nc3cccc(C(F)(F)F)c3)cc2s1,8.34%
4,CCOC(=O)c1cc(S(=O)(=O)N2CCN(c3ccccc3F)CC2)[nH]n1,-1.86%
5,COc1ccc(N2CCN(CCCNC(=O)Cn3c(-c4cccs4)cc4ccccc43)CC2)cc1,-7.15%
6,CCCOc1ccccc1N/C(N)=N/c1nc(C)cc(C)n1,active: 30.9%
7,CCOc1ccc(CNS(=O)(=O)c2ccc(-c3coc(C)n3)cc2)cc1,6.16%
8,COc1cccc(C2C(C(=O)Nc3ccc(C)cc3C)=C(C)Nc3nc4ccccc4n32)c1OC (stereo not given),-16.4%
9,COc1ccc2nc(N(Cc3cccnc3)C(=O)C3CCCCC3)sc2c1,20.5%
10,CC1(C)C(=O)N(CC(=O)Nc2ccc(Br)cc2F)c2ccccc21,-18.8%
11,Cn1cc(S(=O)(=O)N2CCOCC2)cc1C(=O)Nc1ccc(Cl)c(C(F)(F)F)c1,10.2%
12,Cc1ccc(O)c(NC(=O)c2cc(-c3ccccc3O)no2)c1,-27.1%
13,Cc1cc(NC(=O)Nc2nnc(N(C)Cc3ccccc3)s2)ccc1Br,0.547%
14,CCOc1ccccc1NC(=O)Cc1noc2ccc(C)cc12,17.7%
15,CCOc1ccc2nc(NC(=O)c3nc(SC)ncc3Cl)sc2c1,-7.1%
16,Cn1cnc2c(=O)oc3ccc(S(=O)(=O)Nc4ccc(F)cc4)cc3c21,9%
17,COc1cc2c(cc1OC)C1Cc3ccc(OC)c(OC)c3CN1CC2 (stereo not given),active: 79.7%
18,COc1ccc(-c2nnc(SCc3cccc(Cl)c3)o2)cc1,5.13%
19,CC(=O)N1CCC(N(Cc2ccc(C)o2)C(=O)Nc2ccc(C)cc2)CC1,-6.26%
20,CCOc1ccc(OCC)c(NS(=O)(=O)c2ccc(-c3coc(C)n3)cc2)c1,-17.2%
21,Cn1c(=O)[nH]c(=O)c2c1nc(NCCc1ccccc1)n2Cc1ccc(F)cc1,-10.7%
